Hit rate of the full screen: of about 45,000 compounds, about 65 (0.1%) were called active. The call rests on the fitted dose curve; in most records, active means well fitted activation curve with a large enough effect; inconclusive means small, poorly fitted or top-dose-only effect; inactive means no such curve, though single readings can be large or run the other way. Some of the results follow.

For this experiment, the target named is Galactocerebrosidase (Homo sapiens) (UniProt P54803). Description: A Novel Cell-Based Assay to Identify Small Molecules for B -Galactocerebrosidase. Further: 0% is about no effect; nearly all actives have a fitted effect of over 65% in size. Conditions: 145M-Twi-hGALC-G270D cells, HMU-beta-Gal fluorescence, 48 h; series mostly up to 57.5 µM; activation: at the top concentration. In short, it runs like this: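 qHTS, 1536-well; 145M-Twi-hGALC-G270D cells (WT line also made) in DMEM/F12 + 10% FBS; compound incubation on live cells; HMU-β-gal 0.1 mM final, pH 5.2, NaTC; carbonate stop; fluorescence increase = enhanced residual activity.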
Sequence of UniProt P54803 (P54803 whole entry, looked up): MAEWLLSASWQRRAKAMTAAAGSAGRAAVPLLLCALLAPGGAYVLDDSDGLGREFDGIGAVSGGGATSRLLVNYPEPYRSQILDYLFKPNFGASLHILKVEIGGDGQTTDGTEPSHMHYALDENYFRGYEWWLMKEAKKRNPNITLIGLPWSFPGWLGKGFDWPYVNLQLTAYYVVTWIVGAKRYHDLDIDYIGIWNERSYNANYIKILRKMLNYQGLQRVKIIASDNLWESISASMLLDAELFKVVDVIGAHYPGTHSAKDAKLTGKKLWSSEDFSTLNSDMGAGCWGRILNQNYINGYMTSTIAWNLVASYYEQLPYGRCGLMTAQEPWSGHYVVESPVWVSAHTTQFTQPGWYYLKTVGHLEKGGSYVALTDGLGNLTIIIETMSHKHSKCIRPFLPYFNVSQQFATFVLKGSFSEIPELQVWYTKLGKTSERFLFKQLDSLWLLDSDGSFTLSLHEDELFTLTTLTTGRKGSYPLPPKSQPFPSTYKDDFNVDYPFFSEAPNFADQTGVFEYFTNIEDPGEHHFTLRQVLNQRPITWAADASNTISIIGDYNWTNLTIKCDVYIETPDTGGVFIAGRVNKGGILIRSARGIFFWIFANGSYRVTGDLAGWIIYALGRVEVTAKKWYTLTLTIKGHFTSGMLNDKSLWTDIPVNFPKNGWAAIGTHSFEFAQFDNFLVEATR
With `Cc1nn(-c2ccc(F)cc2)c(-n2cccc2)c1C(=O)N1CCN(c2ccccc2)CC1`, the “activation” value was inactive: -39.3%.
As for `CCOc1ccc(Cn2nnc(C(=O)Nc3cccc(SC)c3)c2N)cc1`, the figure is inactive: 6.19%; as for `Cc1ccc(NC(=O)CSc2nnc(-c3cc4occc4n3C)n2-c2ccccc2C)c(Cl)c1`, inactive: -15.9%.
On to `COc1ccc(NC(=O)CSC2=Nc3ccccc3C3=NC(CCC(=O)NCc4cccs4)C(=O)N23)cc1` (stereo unspecified), for which the “activation” value was inactive: -16.6%.
The same measure for `O=C(NCCc1ccccc1)C1CCN(c2ncnc3c2nc2n3CCCCC2)CC1`: inactive: -14.1%; for `Cc1ccc(C)c(Cn2c3ccccc3c3cnn(CC(=O)NC4CCC(C)CC4)c(=O)c32)c1` (stereo unspecified): inactive: -2.07%; for `Cc1ncc(CO)c2c1Oc1nc(-c3ccc(F)cc3)nc(SCC(=O)N3CCCCC3)c1C2`: inactive: -8.62%.
The same measure for `Cc1ccc(CN2C(=O)N(c3ccc(F)cc3)C(=O)C2CC(=O)Nc2ccc(Cl)cc2)cc1` (stereo unspecified): inactive: -13.1%; for `COc1cc(/C=C/c2nc(C#N)c(N3CCCCC3)o2)cc(OC)c1OC`: inactive: -18.9%.
The same measure for `CCOc1ccc(-c2nonc2NC(=O)c2ccco2)cc1`: inactive: -33.8%; for `CC1=C(C(=O)NCc2cccc(Br)c2)C2(CCCCC2)OC1=O`: inactive: -6.21%.
In the case of `CCCCOC(=O)/C(C#N)=C/c1ccc(-c2cccc(C(F)(F)F)c2)o1`, the “activation” value was inactive: -12.4%.
As for `CCOc1ccc(NC(=O)CSc2nc3c(oc4ccccc43)c(=O)n2-c2cc(C)cc(C)c2)cc1`, the figure is inactive: -3.27%.
As for `Cc1nnc(N2CCC(C(=O)Nc3ccc(F)cc3)CC2)c2nn(-c3ccc(Cl)cc3)c(C)c12`, the figure is inactive: -9.78%; as for `Cc1ccc(C(=O)Nc2c(-c3ccccc3)nc3ccccn23)cc1`, inactive: -9.2%; as for `Cc1ccc(C2c3[nH]c4ccccc4c3CCN2C(=O)c2ccccc2Br)cc1` (stereo unspecified), inactive: -4.06%.
For `CCN(Cc1ccccc1)C(=O)Cn1cc(S(=O)(=O)Cc2cccc(Cl)c2)c2ccccc21`, the “activation” value was inactive: 1.71%.
The same measure for `Cc1ccc(O)c(NC(=O)c2ccc(Br)c(S(=O)(=O)N3CCCCC3)c2)c1`: inactive: -21.3%; for `Cc1cc2c(cc1C)NC(CC(=O)Nc1ccccc1)C(=O)N2` (stereo unspecified): inactive: 0.411%.
For the compound `Cc1ccccc1CSc1nc2cc(C(=O)NC3CCCC3)ccc2c(=O)n1Cc1ccccc1`, the “activation” value is inactive: -14.6%.
Regarding `COC(=O)CC1Oc2ccccc2-n2cc(-c3ccccc3)nc21` (stereo unspecified), the “activation” value was inactive: -4.8%.
As for `Cc1ccc(-n2nc(CO)c(C(=O)NC(C)CCCc3ccccc3)n2)cc1C` (stereo unspecified), the “activation” value was inactive: -3.58%.
The same measure for `CC1CCN(C(=O)CSc2c(C(C)C)cnc3c2c(=O)n(C)c(=O)n3C)CC1`: inactive: 8.98%; for `CCCSc1ccc2nc(NC(=O)OC)[nH]c2c1`: inactive: -16.3%; for `O=C(CCCn1c(=O)c2cccn2c2ccc(F)cc21)NCc1ccc(Cl)cc1`: inactive: -6.96%.
The same measure for `CCc1ccc(NC(=O)C(=O)NCC(c2cccnc2)N2CCN(Cc3ccccc3)CC2)cc1` (stereo unspecified): inactive: -25.1%; for `CCC(=O)Nc1ccc2nc(SCCOc3ccccc3)sc2c1`: inactive: -0.49%.
The same measure for `CC(=O)Nc1nonc1-c1nnc(SCC(=O)Nc2ccccc2)n1-c1ccccc1`: inactive: -12.9%.
For `CCCCOc1ccc(CNC(=O)c2ccc(NC(=O)N3CCCCc4ccccc43)cc2)cc1`, the “activation” value was inactive: -6.05%.
`CCOc1ccc(CNS(=O)(=O)c2ccc3[nH]c(=O)ccc3c2)cc1`: the “activation” value is inactive: -2.61%.
For `CCn1c(C)c(C)c2cc(C(=O)NCCCN3CCCCC3)ccc21`, the “activation” value was inactive: 8.95%.
The same measure for `COc1ccccc1OC(C)C(=O)Nc1c(C(=O)c2ccc(Cl)cc2)oc2ccccc12` (stereo unspecified): inactive: -0.0281%.
The same measure for `Cc1ccc(C)c(N2CCN(Cc3nnc(-c4ccc5c(c4)OCO5)o3)CC2)c1`: inactive: -23.7%; for `Cn1c(=O)oc2cc(S(=O)(=O)NC(Cc3ccccc3)C(=O)NCc3ccc(F)cc3)ccc21` (stereo unspecified): inactive: -12.5%; for `CCC(=O)N1c2ccccc2CC1C(=O)NCCN1CCN(c2cccc(C(F)(F)F)c2)CC1` (stereo unspecified): inactive: -12.5%.
As for `CCOC(=O)Cn1c(=O)n(CC2CCCO2)c2nc(-c3cccc(C)c3)nc(C(N)=O)c21` (stereo unspecified), the figure is inactive: -0.84%.
With `COC(=O)c1ccc(-n2c(CCC(=O)O)ccc2-c2ccc(C)cc2)cc1`, the “activation” value was inactive: -7.57%.
The same measure for `Cc1c(Cl)cccc1NC(=O)c1noc2c1CCCC2`: inactive: -12.9%; for `CNS(=O)(=O)c1cn(CC(=O)Nc2cccc(OC)c2)cc1S(=O)(=O)NC`: inactive: -11.8%; for `CCOc1ccccc1NC(=O)CCc1c(C)nn(-c2ccc(N3CCOCC3)nn2)c1C`: inactive: 5.28%.
The same measure for `Cc1ccc(NC(=O)CSc2ncn[nH]2)cc1C`: inactive: -13.8%.
On to `CCCCSCCCNC(=O)c1cn(C)c2ccc(S(=O)(=O)N3CCCCC3)cc2c1=O`, for which the “activation” value was inactive: 6.01%.
Consider `COc1ccc(-n2nc(C(=O)Nc3ccc(C)cn3)c3c4ccccc4n(C)c3c2=O)cc1`, for which the “activation” value was inactive: -10.5%.
The same measure for `Cc1ccc(-n2cc(-c3ccccc3)nc2S(=O)(=O)CC(=O)Nc2ccc(F)cc2)cc1`: inactive: 5.56%; for `Cc1ccc(N(CC(=O)NCc2ccc(F)cc2)S(=O)(=O)c2c(C)nn(C)c2C)cc1`: inactive: -12.9%; for `COc1cccc(CNC(=O)c2ccc3c(c2)nnn3C2CCCC2)c1`: inactive: -4.53%.
As for `Cc1ccc(C)c(N2CCN(C(=O)C3CCCN(S(=O)(=O)c4cccc5nsnc45)C3)CC2)c1` (stereo unspecified), the figure is inactive: 0.477%; as for `O=C(CNC(=O)c1ccccc1F)OCc1cc(=O)n2ccsc2n1`, inactive: -15.9%.
For `COc1ccccc1C(=O)Nc1nnc(SCc2cc(=O)c3cc(Cl)ccc3[nH]2)s1`, the “activation” value is inactive: 16.6%.
Regarding `COc1ccc(OC)c(NC(=O)Cn2ccc3ccccc3c2=O)c1`, the “activation” value was inactive: -13.5%.
As for `COc1ccc(NC(=O)c2c(-c3ccc(C)cc3)nnc3ccccc23)cc1Cl`, the figure is inactive: 1.16%; as for `CCN(CC)C(=O)Cn1c(=O)n(-c2ccc(OC)cc2OC)c(=O)c2c(C)c(C(=O)N(CC)CC)sc21`, inactive: -16.3%.
The same measure for `Cc1nc(-c2ccc(Cl)cc2)sc1CCNC(=O)Cc1ccc(F)cc1`: inactive: 7.29%.
As for `COc1ccc(C)cc1NC(=O)Cn1c(=O)cc(C)c2c(C)nn(C)c21`, the figure is inactive: -3.62%.
Consider `O=S(=O)(c1ccccc1)c1nc(-c2ccc(Cl)cc2Cl)oc1N1CCCCC1`, for which the “activation” value is inactive: 4.02%.
As for `CCN(CC)CCCNC(=O)c1cn(CC)c2ccc(S(=O)(=O)N3CCc4ccccc4C3)cc2c1=O`, the figure is inactive: -13.1%.
As for `Cc1ccc(C(=O)Nc2cccc(O)c2)cc1S(=O)(=O)N1CCCCCC1`, the figure is inactive: 25%; as for `CCCN(CCC)C(=O)Cn1c(=O)n(-c2ccccc2)c(=O)c2c3c(sc21)CCCC3`, inactive: -14%; as for `N#C/C(=C/c1ccc(Cl)cc1)c1nc(-c2ccc(Br)cc2)cs1`, inactive: -10.5%.
The same measure for `O=S(=O)(NCc1nc2cccnc2n1Cc1ccccc1)c1ccc2c(c1)CCCC2`: inactive: 18.5%.
Regarding `CCc1ccc(-n2c(=O)c3c(C)c(C)sc3n(CC(=O)NCc3ccc(C)cc3)c2=O)cc1`, the “activation” value was inactive: -13%.
With `CCOC(=O)c1ccc(NC(=O)/C(C#N)=C/c2ccc(OC)cc2)cc1`, the “activation” value is inactive: -20.8%.
As for `CCCCc1nn2c(=O)cc(COC(=O)c3cccc(NC(=O)CCc4ccccc4)c3)nc2s1`, the figure is inactive: -5.15%; as for `Cc1ccc(CSc2oc(-c3ccco3)nc2S(=O)(=O)c2ccc(C)cc2)cc1`, inactive: -12.3%; as for `COc1cc(/C=C(\C#N)c2nc3ccccc3[nH]2)cc(Cl)c1OCc1ccccc1Cl`, inactive: -17.4%.
As for `COc1cc2nc(SCC(=O)Nc3c(C)cc(C)cc3C)n3nc(CCn4c(C)nc5ccccc54)nc3c2cc1OC`, the figure is inactive: 6.2%.
Take `Cc1ccc(NS(=O)(=O)c2ccc3[nH]c(=O)oc3c2)c(C)c1`: the “activation” value is inactive: -8.65%.
The same measure for `O=C(CCC1N=C2c3ccccc3N=C(SCc3ccc(Cl)cc3)N2C1=O)NCCc1ccccc1` (stereo unspecified): inactive: -6.6%.
The same measure for `CCc1cccc(C)c1NC(=O)c1cc(S(=O)(=O)NCc2ccccc2Cl)ccc1F`: inactive: 10.9%.
As for `CC(=O)NCC(c1ccc2c(c1)OCO2)N1CCN(c2ccccc2)CC1` (stereo unspecified), the figure is inactive: -11.4%.
As for `CCCn1c2ccccc2c2cnn(CC(=O)N(C)c3ccccc3CC)c(=O)c21`, the “activation” value is inactive: 0.489%.
Turning to `CCOC(=O)c1c(S(=O)(=O)NCC(=O)N2CCN(c3ccccc3)CC2)c(C)n(C)c1C`, the “activation” value was inactive: -1.42%.
The same measure for `Fc1ccc(C(NCCc2ccc(Cl)cc2)c2nnc(-c3ccccc3)o2)c(Cl)c1` (stereo unspecified): inactive: -11.1%; for `COc1ccccc1CNC(=O)CCn1c(=O)c2ccccc2n(CC(=O)Nc2ccc(C)cc2Cl)c1=O`: inactive: 18.8%.
As for `CCOc1ccc(C(=O)c2cn(CC(=O)Nc3ccc(F)cc3)c3cc4c(cc3c2=O)OCO4)cc1`, the figure is inactive: 0.136%; as for `CCOc1ccccc1CNC(=O)CCCn1ncn2c(cc3occc32)c1=O`, inactive: -7.93%; as for `COc1ccc(CCNC(=O)Cn2c(=O)nc(-c3ccccc3)c3ccccc32)cc1OC`, inactive: -10.5%.
The same measure for `COc1ccc(N(CC(=O)NCc2ccccc2Cl)S(=O)(=O)c2c(C)nn(C)c2C)cc1`: inactive: 2.79%.
Turning to `Cc1ccc2cccc(NC(=O)COc3cc(C)c(Cl)c(C)c3)c2n1`, the “activation” value was inactive: -14.1%.
As for `CN(C)CCCN(C(=O)c1ccc(Br)s1)c1nc2ccc(F)cc2s1`, the figure is inactive: -14.4%; as for `Cn1c(=O)c(=O)n(C)c2cc(NC(=O)c3cccc(F)c3)c(Cl)cc21`, inactive: -17.2%.
`CCCSCCCNC(=O)C1CCCN(c2nn3cc(-c4ccc(OC)cc4)nc3s2)C1` (stereo unspecified): the “activation” value was inactive: 2.15%.
As for `CCCCN(CC)CCNC(=O)CN1C(=O)COc2ccc(S(=O)(=O)N3CCCC3)cc21`, the figure is inactive: -9.18%; as for `Cc1ccc(CCNC(=O)CCn2nc(-c3ccccc3)ccc2=O)cc1`, inactive: -15.3%.
As for `Cc1nn(CC(=O)Nc2ccccc2C(F)(F)F)c(=O)c2cccn12`, the “activation” value is inactive: -8.38%.
The same measure for `O=C(NCCc1ccccc1)c1ccc(Cn2c(SCc3cccc(F)c3)nc3cccnc32)cc1`: inactive: -27.2%.
As for `Cc1ccccc1NC(=O)N1CCc2c(sc3c2CCCC3)C1c1ccccc1` (stereo unspecified), the “activation” value is inactive: -7.12%.
Consider `COc1ccc(NC(=O)c2ccc3nc(CCc4ccccc4)oc3c2)c(OC)c1`, for which the “activation” value was inactive: 6.17%.
The same measure for `CCOc1ccc(C(=O)Nc2c(C(=O)c3ccc(OC)cc3)oc3ccccc23)cc1`: inactive: 13.7%.
As for `CCCCCn1cc2c(c1-c1ccc(Br)cc1)c(=O)n(C)c(=O)n2C`, the figure is inactive: -10.9%; as for `CCC(=O)Nc1ccc(CC)cc1-c1nc2ccccc2n(CC(=O)Nc2cccc(Cl)c2)c1=O`, inactive: -1.49%; as for `O=C(Cn1c(=O)oc2cc(Cl)ccc21)Nc1cccc(C(F)(F)F)c1`, inactive: -5.95%.
Consider `Cc1nc2ncnn2c(C)c1CCC(=O)N1CCN(c2ccccc2)CC1`, for which the “activation” value is inactive: -0.21%.
As for `COc1cccc(NC(=O)Cn2nnc(-c3nc(-c4ccccc4)no3)c2N)c1`, the figure is inactive: -24.4%; as for `COc1ccc(OC)c(NC(=O)c2cc3cc(C)ccc3n2C)c1`, inactive: -7.5%; as for `CCc1ccccc1NC(=O)Cn1c(=O)n(-c2ccc(C)cc2)c(=O)c2c1c1cc(C)ccc1n2C`, inactive: -15.5%.
